From the supplement of paper PMC11417369
This is one part of the list.

test system: PfHDP1 homeodomain (GST-tagged); test: gcPBM binding intensity (ln(normalized median fluorescence intensity)); higher = stronger DNA binding
Summary of the method: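 Using an Agilent 4 × 180k array, primer-extended double-stranded 36-bp intergenic genomic probes and negative controls were exposed for 1 h to GST-fused P. falciparum DNA-binding domains expressed in E. coli. Binding was carried out in 1× PBS with 1% milk, 0.2 mg/ml BSA, 0.5% salmon testes DNA and 0.03% Triton X-100, and protein was detected with Alexa488 anti-GST antibody and a 488 nm scan. Binding intensity is the highest Masliner-normalised natural-log median intensity across replicate spots of either probe orientation.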

| Sequence | gcPBM binding intensity (ln) |
| --- | --- |
| AAATTAAAAAAAAATAAATAAAAAAAAAAAAAAAAT [CACACA_negctrl_site1611] | 6.28 |
| AAAAAAAAAAAAAAATGTACATATATATATTATAAA [XGTACX_site518] | 6.33 |
| ATAAATACATATAAAAGTACACACACACACATATAT [XGTACX_site1744] | 7.05 |
| ATGTGCAAATATTAAAGTACTAAATTTTATTATTTT [XGTACX_site7306] | 11.3 |
| TGTATATGTGAAGCAAGGGATGCGGCAGACATAACA [CACACA_negctrl_site1339] | 6.51 |
| TGAAATTTCAATACATGTACATATAAAAAAAAAAAA [XGTACX_site4424] | 6.83 |
| ATGTTTTTTATTCTTCGTACGTATGAACGATAGTGT [XGTACX_site4225] | 6.71 |
| CATTATTATTTTATAACACACACATATATATTATAT [CACACA_site8405] | 6.75 |
| TATAAAATAAGACATGCATGTTATACATATATATTT [TGCATGCA_site156] | 6.51 |
| AAACGTATGTTATTTACACACCCTTCCACTTTTATA [CACACA_site3337] | 6.66 |
| TTTGTGTATATATAATGTACATTATATTTTTATTAT [XGTACX_site6506] | 7.35 |
| AAAAAAAATATACATACATGCATACATAAGTTTCTA [TGCATGCA_site998] | 6.12 |
| TATATATATGGACACACACACACATATATATATATA [CACACA_site6121] | 9.18 |
| ATTAAAAAAAAAGAGCGTACAAATAATTACTTCTTT [XGTACX_site8262] | 6.04 |
| TATAAATTTATAAATAGTACATATATTTATATATAT [XGTACX_site6433] | 6.54 |
| AAAAAAAAAAAAATTACACACATACATATAATAATA [CACACA_site8680] | 6.41 |
| ATATTAAGAATAAACAGTACATATAATAAATACCAT [XGTACX_site5933] | 6.6 |
| GGGTATATATTATTATGTACACATGTATAAAATAAG [XGTACX_site2633] | 6.59 |
| ATATTACATAATATATGTACACACGCAAATACTTAT [XGTACX_site671] | 6.82 |

| Sequence | gcPBM binding intensity (ln) |
| --- | --- |
| CAGATAGACTTATATGCATGCATTCACCTGCCAACA [TGCATGCA_site158] | 6.9 |
| ATGAAATTATATTGGGGTACGTCAAAAAAGGAGATA [XGTACX_site7451] | 7.14 |
| TAAGCATAAATGTATACATGCGATGCATACACATAT [TGCATGCA_site749] | 6.75 |
| TAAATAATATAATTATGTACGTATTTCTTTATTTTA [XGTACX_site8410] | 5.94 |
| GCTGAAAATAAATGAAGTACACAAGTAATATATATA [XGTACX_site6205] | 7.12 |
| TTTTTTTTTTAATTAACACACATAAATATAAATATA [CACACA_site7527] | 6.37 |
| AAAAAAAAAAAAAAAAGTACATATGCTCAAGAGATG [XGTACX_site3783] | 7.4 |
| TATATATATATATATACATGCATCATTGTTCACCTT [TGCATGCA_site177] | 9.22 |
| TAATATTGACTATATACACACATATAAATATAAATA [CACACA_site6414] | 6.53 |
| CATTCAAAGAAAAACAGTACGTGTAGCAAAAGGCCT [XGTACX_site266] | 7.27 |
| GAAAAAAGAAATTTATGTACATACATATATATATAT [XGTACX_site7888] | 9.1 |
| ATATGTAAAATATGGGGTACGAAGGTAGGTAGGTAA [XGTACX_site1392] | 7.59 |
| TAAGCCACCATATTTACACACACATCAAAATGTATT [CACACA_site1815] | 6.65 |
| ATTCTATATGTTACATAAACCTATATTTTTTTTTTT [CACACA_negctrl_site860] | 6.88 |
| ATAAAGCCATACAATACACACATTTTACATGTCGGT [CACACA_site3265] | 6.43 |
| ATATATATATATATGTGTACATATTAGTGATATAAT [XGTACX_site7161] | 9.28 |
| AATGCGCATTTTTTTTTTTTTTTTTTTTTTTTTTTT [XGTACX_negctrl_site258] | 7.42 |
| TATAAATATAAATACTGTACATTATATTATATAATA [XGTACX_site2480] | 6.26 |
| CGTTACACAAAAATATGTACATATATACATATATAT [XGTACX_site4631] | 6.83 |

| Sequence | gcPBM binding intensity (ln) |
| --- | --- |
| TAAAAATAATATTAATGTACATTACATATTAATATA [XGTACX_site1019] | 6.35 |
| TATTCCCCCAAACACACACACACACCCACATACCAC [CACACA_site2304] | 7.16 |
| TTGTATTTACTATACACACACATACATACATACATA [CACACA_site4603] | 6.91 |
| AATGGGATCATGGTATGTACTTACACAAATGAATTA [XGTACX_site5389] | 6.32 |
| TGAATAAAATATTATACACACATATGTATTTAACAT [CACACA_site4694] | 6.61 |
| ATCATTTAAACAATATGTACTCATTGTAGATATGGT [XGTACX_site5088] | 6.54 |
| AATATAAATGTGATTACACACAACAGATTTAAATGG [CACACA_site4802] | 6.56 |
| TTATTTTTTAATTATATTCAAAATTAAAAAAAAAAA [XGTACX_negctrl_site226] | 5.95 |
| ATTAAAAAAAAAAAAAAAAAAAAAAAAAAAAAAAAA [CACACA_negctrl_site1060] | 6.3 |
| ATTGATAAATTAACTAGTACACATATAAATATATTA [XGTACX_site2325] | 6.21 |
| TATACGTGTTTTATTTGTACTTAAGCAGGTAAGCAT [XGTACX_site193] | 6.39 |
| CTATATATTTTTTCTTAACACACATATATAAAATAA [CACACA_site9165] | 6.64 |
| TATATTTATTTTCTGTGTACACATATGTTGTGTATT [XGTACX_site7640] | 7.98 |
| TATATGTATCCATTATGTACATAATAGTAATATAAT [XGTACX_site4008] | 6.66 |
| TAAAAAATACAAGAGTGTACAAAATTTTTCTAAATG [XGTACX_site5334] | 6.58 |
| AAAACCTAGTGCATTTGTACATATTTCAATTTTAAA [XGTACX_site4582] | 8.64 |
| TTTAAATACAGACATACACACATACACGCACATATA [CACACA_site6400] | 7.32 |
| TATATTTTTATTGAACGTACAAAAAGTCGAAAACAG [XGTACX_site3967] | 6.66 |
